Test results as given in paper PMC4336329 (PLoS ONE, 2015).
The campaign covered roughly 310,000 compounds. About 14,000 (4.5%) showed an effect of 50% or more. The effect is printed as a negative number. This is one part of the list.

target: human ether-à-go-go-related gene (hERG) potassium channel (human, UniProt Q12809); test: primary screen, population patch clamp on CHO cells stably expressing hERG
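Note: peak tail current of the secondary pulse compared with the same well before compound.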

Chain of human ether-à-go-go-related gene (hERG) potassium channel (Q12809 whole entry, looked up): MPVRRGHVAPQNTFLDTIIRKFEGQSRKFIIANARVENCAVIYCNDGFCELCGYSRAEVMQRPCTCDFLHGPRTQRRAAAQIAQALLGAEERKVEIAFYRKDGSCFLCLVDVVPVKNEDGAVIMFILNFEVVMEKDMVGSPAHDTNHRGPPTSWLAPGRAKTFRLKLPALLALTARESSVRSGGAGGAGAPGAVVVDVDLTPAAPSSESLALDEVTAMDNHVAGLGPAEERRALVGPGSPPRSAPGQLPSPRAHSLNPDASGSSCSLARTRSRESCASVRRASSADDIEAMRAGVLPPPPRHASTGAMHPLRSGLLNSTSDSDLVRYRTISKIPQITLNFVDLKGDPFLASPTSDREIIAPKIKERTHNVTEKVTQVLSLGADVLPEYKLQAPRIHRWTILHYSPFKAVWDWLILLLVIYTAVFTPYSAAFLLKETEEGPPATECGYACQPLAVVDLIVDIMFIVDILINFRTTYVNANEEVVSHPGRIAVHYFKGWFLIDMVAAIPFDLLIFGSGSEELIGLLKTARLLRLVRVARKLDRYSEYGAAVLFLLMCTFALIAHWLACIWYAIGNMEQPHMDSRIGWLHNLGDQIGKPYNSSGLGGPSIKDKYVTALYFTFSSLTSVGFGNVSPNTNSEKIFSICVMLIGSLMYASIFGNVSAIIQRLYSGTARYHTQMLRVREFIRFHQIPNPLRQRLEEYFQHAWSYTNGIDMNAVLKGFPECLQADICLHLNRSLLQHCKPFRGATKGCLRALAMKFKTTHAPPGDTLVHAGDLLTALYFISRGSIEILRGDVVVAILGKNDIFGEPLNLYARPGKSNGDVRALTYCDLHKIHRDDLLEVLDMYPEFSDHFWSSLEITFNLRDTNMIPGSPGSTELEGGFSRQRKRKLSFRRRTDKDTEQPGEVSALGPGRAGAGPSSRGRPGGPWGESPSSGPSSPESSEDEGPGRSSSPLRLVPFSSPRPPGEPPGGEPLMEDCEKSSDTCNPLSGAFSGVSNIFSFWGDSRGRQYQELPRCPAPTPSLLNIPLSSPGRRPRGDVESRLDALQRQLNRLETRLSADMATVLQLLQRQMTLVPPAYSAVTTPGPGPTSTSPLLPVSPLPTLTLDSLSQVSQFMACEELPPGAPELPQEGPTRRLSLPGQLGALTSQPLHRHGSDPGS

| SMILES | hERG current change (%, negative = inhibition) at 10uM [%] |
| --- | --- |
| CCN1CCN(c2nc3c(C)cccn3c(=O)c2/C=C(\C#N)C(=O)NCCCOC)CC1 | 2.76 |
| C=C(C)[C@H]1CN[C@H](C(=O)O)[C@H]1CC(=O)O | 6.4 |
| Cc1cc(NC(=O)COC(=O)CCCOc2ccc(Cl)cc2C)no1 | 11.4 |
| COc1ccccc1Cn1c(=S)[nH]c2cc(C(=O)NCCN3CCOCC3)ccc2c1=O | -3.38 |
| Cc1ccc2c(CN(C)Cc3cccc(Cl)c3)cc(=O)oc2c1C | 12 |
| Cc1cc(/C([O-])=C(/C(=S)Nc2ccc(F)cc2)[n+]2ccccc2)c(C)n1Cc1ccccc1Cl | 16.8 |
| COc1ccccc1C(=O)NCC(=O)N/N=C/c1ccc2c(c1)OCO2 | 13.4 |
| O=C(NCCC(NS(=O)(=O)OCC(Cl)(Cl)Cl)c1ccccc1)C(F)(F)F (centres unmarked) | -16.4 |
| O=C(O)C(=O)O.O=C1CN(C(=O)CNCc2ccccc2Cl)c2ccccc2N1 | 2.15 |
| CC(C)(C)OC(=O)N1CCC[C@H]1c1nnc(SC/C=C/c2ccccc2)o1 | -31.8 |
| CCCCN(CC)C(=S)Nc1ccc2nc3n(c(=O)c2c1)CCCCC3 | -59 |
| O=C(CCCC(=O)N(CC(=O)NC1CCCC1)Cc1ccc2c(c1)OCO2)Nc1ccccn1 | -26.5 |
| COc1ccc(N=Cc2c(O)n(Cc3ccccc3)c(=S)[nH]c2=O)c(OC)c1 | -1.29 |
| CC1CN(Cc2ccccc2)c2ccccc2NC1=S (centres unmarked) | 6.25 |
| N#C/C(=C/c1cccc([N+](=O)[O-])c1)c1nnc2n1CCCCC2 | -22.2 |
| COc1ccc(C(=O)N2CCCC(Nc3ccc(F)cc3)C2)cc1F (centres unmarked) | -6.55 |
| CN1C(=O)N(C)C(=O)C(CCc2ccccn2)(CCc2ccccn2)C1=O | 3.54 |
| O=C(Nc1ccc(S(=O)(=O)N2CCOCC2)cc1)c1ccc(Cl)cc1Cl | -16.8 |
| Cc1cc(=O)c(C(=O)O)nn1-c1ccccc1 | 5.86 |

| SMILES | hERG current change (%, negative = inhibition) at 10uM [%] |
| --- | --- |
| CCOC(=O)C1=C(C)NC(C)=C(C(=O)OCC)C1C(=O)OCC(=O)NCCc1ccc(S(N)(=O)=O)cc1 | 10 |
| Cc1cc(C)nc(NS(=O)(=O)c2ccc(NC(=O)c3snnc3C)cc2)n1 | 13.3 |
| S=C(NCc1cccnc1)Nc1ccc(Cl)cc1Cl | 4.6 |
| Cc1ccc(C(=O)COC(=O)c2ccc(Br)o2)cc1C | 2.78 |
| COc1ccccc1-c1nc(COc2ccc(Cl)cc2Cl)no1 | 12.8 |
| CC(C)OC(=O)c1cccc(NC(=O)c2ccccc2)c1 | -28.6 |
| NS(=O)(=O)c1ccc(NCC2COc3ccccc3O2)c([N+](=O)[O-])c1 (centres unmarked) | 6.02 |
| Brc1ccc(CNc2cc3c(cc2Br)OCCO3)cc1 | 31.3 |
| COc1cccc(-n2c(=O)c3sccc3n(CC(=O)NC3CCCCC3)c2=O)c1 | 7.52 |
| Cc1ccc2nc(-c3ccccc3)c(CN3CCSCC3)n2c1 | -28.4 |
| COc1cccc(CNS(=O)(=O)c2ccc3c(c2)N(C)CCO3)c1 | -5.83 |
| CC(C)(O)c1cn(-c2nonc2N)nn1 | -2.57 |
| O=C(C/C=N/OCc1c(Cl)cccc1Cl)c1ccccc1 | -7.98 |
| CN(C)S(=O)(=O)N(CC(=O)NCc1ccccc1)c1ccccc1 | 1.87 |
| CCOc1ccc(N2CC(O)Cn3c2nc2c3c(=O)n(CCCc3ccccc3)c(=O)n2C)cc1 (centres unmarked) | -5.28 |
| O=C(N/N=C/c1ccc(OC2CSC2)cc1)c1ccccc1 | -13.6 |
| C[C@]12CC(=O)CC1CCC1C2CC[C@@]2(C)C1CC[C@@H]2O (some centres unmarked) | 4.2 |
| Cc1nc2scc(-c3ccccc3)c2c(=O)o1 | -12.7 |
| CN(CC(=O)Nc1ccc(Cl)cc1)S(=O)(=O)c1ccc2c(c1)n(C)c(=O)c(=O)n2C | 16.3 |

| SMILES | hERG current change (%, negative = inhibition) at 10uM [%] |
| --- | --- |
| COc1ccc(S(=O)(=O)NCCC(=O)OCC(=O)c2ccc[nH]2)cc1[N+](=O)[O-] | -30.2 |
| Cc1ccc(C(C)C)c(Oc2nnnn2-c2ccccc2)c1 | 14.2 |
| Cc1cccc(N2CCN(c3nnnn3-c3ccccc3)CC2C)c1 (centres unmarked) | -10.8 |
| O=C(CSc1cc(Cl)ccc1Cl)NCC1CCCO1 (centres unmarked) | -16.8 |
| CCOP(=O)(OCC)C(Nc1ccccc1)c1ccco1 (centres unmarked) | 19.7 |
| CC(=O)c1cccc(NC(=O)N2C3CCC2CC(O)(c2cccnc2)C3)c1 (centres unmarked) | 7.47 |
| CCOC(=O)c1c(NC(=O)c2ccncc2)sc(C)c1C | 11.1 |
| CCOc1cc(NCCN2CCOCC2)c([N+](=O)[O-])cc1OCC | -7.79 |
| O=C(N/N=C\c1ccc(CNS(=O)(=O)c2ccccc2)o1)C(=O)Nc1ccc(F)cc1 | -22.3 |
| COC(=O)CC1(C(=O)OC)Oc2ccccc2C(=O)N1c1ccc(F)cc1F (centres unmarked) | 6.4 |
| COCc1cc(CNC(=O)C2CCC(=O)N(Cc3ccccc3OC)C2)[nH]n1 (centres unmarked) | 16.8 |
| CCOC(=O)c1nnn(-c2nonc2N)c1COc1cc(C)c(Cl)c(C)c1 | 6.59 |
| CCc1nn(CC(=O)N2CCC(C)CC2)c(=O)c2cccn12 | 19.4 |
| O=C(Oc1ccccc1C(=O)Oc1ccccc1)c1cccnc1 | -5.85 |
| C=C1CCC[C@]2(C)C[C@H]3OC(=O)C(CNCC(OC)OC)[C@H]3CC12 (some centres unmarked) | 20.1 |
| CCC(=O)c1cn(Cc2ccc(C#N)cc2)c2ccccc12 | -71.8 |
| CCCCCCCC(=O)Nc1cc(C(=O)NCCC)ccc1N1CCC2(CC1)CC(c1ccccc1)=NO2 | -20.9 |
| COc1cc(NC(=O)CSc2cc(C)c3cc(C)cc(C)c3n2)c(C(=O)O)cc1OC | 10.7 |
